Measurements: paper PMC4336329 (PLoS ONE, 2015)
In all, about 310,000 compounds went through this assay and about 2,200 (0.71%) showed an effect of 50% or more. The effect is printed as a negative number. Some of the results follow.

The molecules below were run against human ether-à-go-go-related gene (hERG) potassium channel (human, UniProt Q12809) (assay: primary screen, population patch clamp on CHO cells stably expressing hERG).
human ether-à-go-go-related gene (hERG) potassium channel, sequence (Q12809 whole entry, looked up): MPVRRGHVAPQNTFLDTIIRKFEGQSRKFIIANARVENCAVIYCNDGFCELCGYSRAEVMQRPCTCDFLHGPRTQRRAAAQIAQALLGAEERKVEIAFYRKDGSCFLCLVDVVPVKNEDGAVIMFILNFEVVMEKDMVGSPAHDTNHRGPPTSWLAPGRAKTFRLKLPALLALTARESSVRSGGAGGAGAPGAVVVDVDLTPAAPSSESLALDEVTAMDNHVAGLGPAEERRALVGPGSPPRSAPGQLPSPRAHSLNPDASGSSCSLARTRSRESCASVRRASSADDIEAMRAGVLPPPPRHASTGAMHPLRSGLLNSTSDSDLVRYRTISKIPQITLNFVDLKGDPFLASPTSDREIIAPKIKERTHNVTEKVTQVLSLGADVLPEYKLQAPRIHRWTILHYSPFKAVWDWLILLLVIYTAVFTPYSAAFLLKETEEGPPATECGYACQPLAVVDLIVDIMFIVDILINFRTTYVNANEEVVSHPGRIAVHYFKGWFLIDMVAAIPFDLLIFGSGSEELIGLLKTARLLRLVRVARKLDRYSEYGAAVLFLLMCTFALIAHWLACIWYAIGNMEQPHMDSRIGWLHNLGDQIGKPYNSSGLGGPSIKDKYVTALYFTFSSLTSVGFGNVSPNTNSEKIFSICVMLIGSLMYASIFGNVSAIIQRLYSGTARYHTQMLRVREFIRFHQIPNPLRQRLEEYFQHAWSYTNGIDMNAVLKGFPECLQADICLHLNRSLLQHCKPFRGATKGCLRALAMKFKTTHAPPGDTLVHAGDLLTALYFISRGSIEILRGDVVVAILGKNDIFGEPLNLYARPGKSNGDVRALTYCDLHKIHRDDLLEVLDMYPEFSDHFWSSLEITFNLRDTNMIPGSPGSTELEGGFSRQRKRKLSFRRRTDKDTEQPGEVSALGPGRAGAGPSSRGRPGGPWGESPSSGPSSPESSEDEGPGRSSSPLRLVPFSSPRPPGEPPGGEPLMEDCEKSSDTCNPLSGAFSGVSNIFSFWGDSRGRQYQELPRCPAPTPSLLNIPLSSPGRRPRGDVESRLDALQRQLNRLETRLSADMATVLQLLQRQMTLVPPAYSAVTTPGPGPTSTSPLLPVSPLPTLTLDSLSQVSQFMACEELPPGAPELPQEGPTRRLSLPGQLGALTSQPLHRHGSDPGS

Structure (SMILES) | hERG current change (%, negative = inhibition) at 1uM
O=C(c1cc(-c2ccc(O)cc2)on1)N1CCN(c2ccc(F)cc2)CC1 | 12.4%
CC(C)CNC(=O)N1c2ccccc2Sc2ccccc21 | 14.4%
CCCN1C2CCCC1CC(NC(=O)c1ccc(Br)cc1)C2 (stereo not shown) | -41.1%
COC(=O)/N=C(/Cc1ccc(OC)cc1)c1ccc(OC)cc1 | 12.1%
Cc1ccc(S(=O)(=O)Nc2ccc3ncccc3c2)cc1 | 11.4%
Cc1cc(=O)[nH]c2ccccc12 | 10.2%
Cc1ccc2nsnc2c1NC(=O)c1ccc([N+](=O)[O-])cc1 | -3.16%
COc1cccc(CC(=O)Nc2ccccc2N2CCCC2)c1 | 10.9%
Cc1ccc(NC(=O)CSCc2cc(=O)n3ccsc3n2)c(C)c1 | 10.8%
Cc1cc(N2CCN(S(=O)(=O)c3ccc(Cl)cc3)CC2)c2ccccc2n1 | -80.8%
CC(=O)c1cc2c(cc1NC(=O)C1CC1)OCO2 | 9.24%
CCS(=O)(=O)N1CCC(C(=O)NCc2cccnc2)CC1 | -12.1%
CCCCC(=O)Nc1cc([N+](=O)[O-])ccc1F | 10.9%
CN(C)c1ccc(NC(=O)CN2CCN(c3ccc(F)cc3)CC2)cc1 | -3.53%
CCOC(=O)c1sc(Nc2nc3cc4c(cc3s2)OCO4)cc1C | 13.2%
O=C1C2CCCCN2C(=O)N1CCCCN1CCN(c2cccc(Br)c2)CC1 (stereo not shown) | -16.7%
CCSc1n[nH]c(=O)[nH]c1=O | 7.32%
CC(C)NC(=O)[C@H]1N2C(=O)c3ccccc3C2SC1(C)C (stereo partly shown) | 22.7%
CC(C)N(C(=O)CSc1nnc(CN2CCCCCC2=O)n1-c1ccccn1)C(C)C | 13.1%
CCOC(=O)n1c(=O)n(Cc2ccccc2Cl)c2ccccc21 | 10.3%
COCc1ccc(C(=O)N2CCCC(N3CCN(c4ccc(F)cc4)CC3)C2)o1 (stereo not shown) | -24.6%
O=C(Nc1ccc(Cl)cn1)c1cccc(S(=O)(=O)N2CCCC2)c1 | -19.3%
COc1ccc(CCNC(=O)c2nonc2N)cc1 | -2.08%

Structure (SMILES) | hERG current change (%, negative = inhibition) at 1uM
Cc1ccc(N2C(=O)CC(N3CCN(S(=O)(=O)c4ccccc4)CC3)C2=O)c(C)c1 (stereo not shown) | 12.3%
COc1nc(OC)nc(N2CCC(C(=O)NCc3cccs3)CC2)n1 | -7.17%
O=C(NC(=S)Nc1ccccc1)c1ccc(Br)o1 | 8.62%
CSc1ccc(CNC(=O)c2ccc(NC(=O)C3=CSCCO3)cc2)cc1 | 16.4%
Cc1ccc(-c2[nH]ncc2CNCCc2cnn(-c3ccccc3)c2)cc1C | -24.9%
C=C1CCN([C@@H](CC(C)C)C(=O)NCCC(C)C)S(=O)(=O)c2ccccc21 | 11.9%
CC1CCN(c2nc3c(cc2C#N)COC(C)(C)C3)CC1 | -3.74%
CCCc1nc2cc(CC(=O)OC)ccc2o1 | 19.4%
CCOC(=O)CSc1nc2ccccc2c(=O)n1C1CCCC1 | -0.485%
CC(C)NC(=O)CC(=O)N/N=C\c1ccccc1C(=O)O | 13.9%
CCCN1CCO[C@@H]2c3cc(O)ccc3OC[C@H]21.Cl | 9.38%
O=C(CNC(=O)c1sc2ccccc2c1Cl)NC1CC1 | 9.43%
COc1ccc(C(=O)NCCN2CCOCC2)c(OC)c1OC | -0.268%
Cc1cc(C)nc(NC(=O)Cc2ccc([N+](=O)[O-])cc2)c1 | -2.56%
CC(C)C(NC(=O)C1CCCCC1)C(=O)NCc1ccccn1 (stereo not shown) | 5.83%
COc1ccc(-c2nnc(Nc3nc4c(OC)cccc4s3)o2)cc1 | 9.17%
Cc1ccccc1-n1c(=O)c2ccccc2n2c(=O)[nH]nc12 | 17.5%
Cc1ccc2c(CC(=O)O)coc2c1 | 21.6%
O=C(NCCN1CCOCC1)c1cc(Sc2ccc(F)cc2F)nc2ccccc12 | -3.95%
O=C(N/N=C/c1cccc(OC(=O)c2ccccc2Cl)c1)c1cccnc1 | 14.4%
Nc1ncnc(SCc2c(F)cccc2Cl)n1 | 12.8%
Cn1c(C(=O)NCCN2CCN(c3ccccc3F)CC2)cc2c(=O)n(C)c3ccccc3c21 | 7.05%
NC(=O)c1ccc(=O)n(Cc2ccc(Cl)cc2Cl)c1 | 16.1%

Structure (SMILES) | hERG current change (%, negative = inhibition) at 1uM
Cc1c(Cl)cnc(NC(=O)COC(=O)C(NC(=O)c2ccco2)C(C)C)c1Cl (stereo not shown) | 6.46%
CC(C)(C)NC(=O)NC(=O)COC(=O)c1ccco1 | -4.9%
Cc1c(NC(=S)N/N=C/c2cc([N+](=O)[O-])ccc2O)c(=O)n(-c2ccccc2)n1C | 6.38%
O=C1Cc2ccccc2C(c2ccccc2)N1 (stereo not shown) | 8.8%
CCOc1ccc(N/C(=N/c2nc(C)cc(C)n2)NC(=O)CC)cc1 | 7.86%
COc1ccc(CNC(=O)C2CCCN(S(=O)(=O)N3CC(C)CC(C)C3)C2)c(OC)c1 (stereo not shown) | 4.92%
O=S(=O)(c1cnccc1N1CCN(/N=C/c2ccccc2)CC1)N1CCCCC1 | 12.1%
CCC(=O)N1CCc2cc(OC)c(OC)cc2C1COc1ccc(OC)cc1 (stereo not shown) | 5.86%
COc1ccccc1-n1cc(C(=O)N2CCCC(CO)(Cc3ccccc3C)C2)cn1 (stereo not shown) | 10.3%
CCN1CCN(S(=O)(=O)c2ccc(OC)c(Br)c2)CC1 | 15.5%
O=C(CSc1ncn[nH]1)Nc1cccc2ccccc12 | 5.07%
COc1ccc([C@@H]2CC=C(C(=O)O)[C@H](c3ccc(F)cc3)N2S(=O)(=O)c2ccccc2C)cc1 | 21.5%
COc1ccc2ccccc2c1/C=N/NC(=O)c1nnn(-c2nonc2N)c1CN(C)C | 3.79%
Cc1cnn(-c2ccc3nnc(-c4ccc(Br)cc4)n3n2)c1 | -4.21%
CCOC(=O)c1cc(-c2ccccc2)sc1NC(=O)CN1C(=O)NC(CC)(c2ccc(F)cc2)C1=O (stereo not shown) | 10.3%
COc1cc(/C=N/NC(=O)c2nc(C)cc(C)n2)ccc1O | 12.1%
CCOC(=O)c1[nH]c(C)c(CN(CCc2ccc(OC)c(OC)c2)C(=O)CCCC(=O)O)c1C | 13.7%
COc1ccc(OC)c(S(=O)(=O)Nc2ccc(-c3ccc4nncn4n3)cc2)c1 | -14.7%
CN1C(=O)N(C)c2ccc(C=O)c3cccc1c23 | 15.4%
CN1CCN(C(=O)c2ccccc2-c2ccccc2C(=O)O)CC1 | 18.2%
COc1ccc(CN(C)C(=O)c2ccc(NS(=O)(=O)c3ccc4[nH]c(=O)[nH]c4c3)cc2)c(OC)c1 | 2%
COC(=O)c1ccc(NC(=O)C2CCCN(S(C)(=O)=O)C2)cc1 (stereo not shown) | 8.68%
CCCC(=O)Nc1ccc(Cl)c(NC(=S)NC(=O)C(C)C)c1 | 18.9%

Structure (SMILES) | hERG current change (%, negative = inhibition) at 1uM
CC(On1nnc2ccccc21)C(=O)N1CCN(Cc2ccccc2)CC1 (stereo not shown) | 5.06%
O=C(c1cc(COc2ccc(F)cc2Cl)on1)N(CCO)Cc1cccs1 | 24.7%
COc1cc(C(=O)NC(C)c2ccc3ccccc3c2)cc(Cl)c1O (stereo not shown) | 8.35%
CCn1c(C)c(C)c2cc(C(=O)NC3CCCCCC3)ccc21 | 7.79%
Cc1ccc2c(Cl)cc(Cl)c(OCC(=O)Nc3cccc(S(N)(=O)=O)c3)c2n1 | 8.17%
O=C(Oc1ccc(/C=N/NC(=O)c2ccccc2O)cc1)c1ccccc1 | 0.189%
Cc1cc(C(=O)COc2cccnc2[N+](=O)[O-])c(C)n1-c1ccccc1 | 1.73%
O=C(NCc1ccncc1)Nc1ccc2c(c1)OCO2 | 6.2%
CCOC(=O)Cc1nc2ccccc2[nH]1 | -5.43%
O=C(Cn1ncc2c3ccccc3n(Cc3ccccc3F)c2c1=O)N1CCC2(CC1)OCCO2 | -30.1%
Cc1ccc(OCCOC(=O)c2cccc(S(=O)(=O)N3CC(C)OC(C)C3)c2)cc1 (stereo not shown) | 3.7%
CCN(CC)c1ccc(/C=N/N2CCN(Cc3ccc(C)cc3C)CC2)c(O)c1 | 6.01%
O=C(O)c1cc(S(=O)(=O)N2CCN(S(=O)(=O)c3ccccc3)CC2)ccc1Cl | 12.7%
Cc1cc(/C=N/NC(=O)c2ccccc2F)c(C)n1-c1ccccc1 | 7.97%
O=C(O)c1ccc2nc3c(nc2c1)-c1ccccc1C3=O | 8.14%
CCCCOC(=O)Nc1cccc(C(=O)OCC)c1 | 8.89%
CSc1ncc(CN2CCCC(C(=O)c3ccc(C(C)(C)C)cc3)C2)cn1 (stereo not shown) | -2.16%
CC1(C)CNc2cc([N+](=O)[O-])ccc2S1 | 13%
COc1ccc(NC(C)=O)cc1NS(=O)(=O)c1cn(C)c(=O)n(C)c1=O | 12.9%
O=C1CC(c2cccc(F)c2)SC(N(c2ccccc2)c2ccccc2)=N1 (stereo not shown) | -10.5%
COc1ccc(Oc2coc3cc(OC(=O)/C=C/c4ccc(F)cc4)ccc3c2=O)cc1 | 5.3%
c1ccc2c(c1)OCC(CNc1ncnc3nc[nH]c13)O2 (stereo not shown) | 15.1%
